Experimental data: the supplement of paper PMC12217912
Some of the results follow. The full chains were built here from the parent and the listed change. Values near 0.05 are background.

B1: TEV protease; numbered along this chain (parent)
chain: MGESLFKGPRDYNPISSSICHLTNESDGHTTSLYGIGFGPFIITNKHLFRRNNGTLVVQSLHGVFKVKDTTTLQQHLVDGRDMIIIRMPKDFPPFPQKLKFREPQREERICLVTTNFQTKSMSSMVSDTSCTFPSGDGIFWKHWIQTKDGQCGSPLVSTRDGFIVGIHSASNFTNTNNYFTSVPKNFMELLTNQEAQQWVSGWRLNADSVLWGGHKVFMVKPEEPFQPVKEATQL

Variants of: B1
Assay: raw area under fraction-flipped curve 0-4 h after induction (AUC4h, not background-subtracted), DNA-recorder readout of cleavage of the substrate (dimensionless); higher = more cleavage of the substrate by the protease variant
Conditions: temperature: 34 °C; time window: 0-4 h after rhamnose induction
Method: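 In vivo DNA recorder in E. coli TOP10(DE3) ΔrhaA at 34 °C. Each TEVp single-site mutant (parent TEVp 0) is paired with a single-site variant of the 7-mer TEVs (canonical ENLYFQ|S). The substrate sits between flexible linkers in a Bxb1-sfGFP-TEVs-SsrA fusion, so cleavage stabilises Bxb1 and speeds flipping of a recombination array, read by NGS. The value is the raw area under the fraction-flipped curve over 0-4 h after rhamnose induction (AUC4h), with ≥20 reads per time point. It is not background-subtracted; inactive controls average about 0.047.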
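Also: Bxb1 expression induced with 0.2% (w/v) L-rhamnose at OD600 near 0.5, cultures sampled hourly, flipped fraction per protease–substrate barcode pair counted by paired-end Illumina sequencing.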

Row | Variant | area with substrate ENLYAQS | area with substrate ENLYCQS | area with substrate ENLYDQS | area with substrate ENLYEQS | area with substrate ENLYGQS | area with substrate ENLYHQS | area with substrate ENLYIQS | area with substrate ENLYLQS | area with substrate ENLYMQS | area with substrate ENLYNQS | area with substrate ENLYPQS | area with substrate ENLYRQS | area with substrate ENLYSQS | area with substrate ENLYVQS | area with substrate ENLYWQS | area with substrate ENLYKQS | area with substrate ENLYQQS | area with substrate ENLYTQS | area with substrate ENLYYQS
1 | MGESLFKGPRDYNPISSSRCHLTNESDGHTTSLYGIGFGPFIITNKHLFRRNNGTLVVQSLHGVFKVKDTTTLQQHLVDGRDMIIIRMPKDFPPFPQKLKFREPQREERICLVTTNFQTKSMSSMVSDTSCTFPSGDGIFWKHWIQTKDGQCGSPLVSTRDGFIVGIHSASNFTNTNNYFTSVPKNFMELLTNQEAQQWVSGWRLNADSVLWGGHKVFMVKPEEPFQPVKEATQL [I19R] | 0.0529 | 0.0593 | 0.0418 | 0.0543 | 0.0564 | 0.0621 | 0.0528 | 0.0535 | 0.0564 | 0.0474 | 0.0558 | 0.0373 | 0.0486 | 0.0402 | 0.0543 | – | – | – | –
2 | MGESLFKGPRDYNPISSSICHLTNESDGHTTSLYGIGFGPFIITNKHAFRRNNGTLVVQSLHGVFKVKDTTTLQQHLVDGRDMIIIRMPKDFPPFPQKLKFREPQREERICLVTTNFQTKSMSSMVSDTSCTFPSGDGIFWKHWIQTKDGQCGSPLVSTRDGFIVGIHSASNFTNTNNYFTSVPKNFMELLTNQEAQQWVSGWRLNADSVLWGGHKVFMVKPEEPFQPVKEATQL [L48A] | 0.0535 | 0.0752 | 0.0487 | 0.068 | 0.0659 | 0.0703 | 0.0674 | 0.0635 | 0.0606 | 0.0684 | 0.0623 | – | 0.0616 | 0.0695 | 0.0687 | 0.0612 | 0.0638 | 0.0604 | 0.068
3 | MGESLFKGPRDYNPISSSICHLTNESDGHTTSLYGIGFGPFIITNKHLFRRNNGTLVVQSLHGVFKVKDTTTLQQHLVDGRDMIIIRMPKDFPPFPQKLKFREPQREERICLVTTNFQTGSMSSMVSDTSCTFPSGDGIFWKHWIQTKDGQCGSPLVSTRDGFIVGIHSASNFTNTNNYFTSVPKNFMELLTNQEAQQWVSGWRLNADSVLWGGHKVFMVKPEEPFQPVKEATQL [K120G] | 0.0589 | 0.0919 | – | 0.0705 | 0.105 | 0.0643 | – | – | – | – | 0.0774 | 0.032 | – | – | 0.0645 | – | 0.0568 | – | 0.0063
4 | MGESLFKGPRDYNPICSSICHLTNESDGHTTSLYGIGFGPFIITNKHLFRRNNGTLVVQSLHGVFKVKDTTTLQQHLVDGRDMIIIRMPKDFPPFPQKLKFREPQREERICLVTTNFQTKSMSSMVSDTSCTFPSGDGIFWKHWIQTKDGQCGSPLVSTRDGFIVGIHSASNFTNTNNYFTSVPKNFMELLTNQEAQQWVSGWRLNADSVLWGGHKVFMVKPEEPFQPVKEATQL [S16C] | 0.0659 | – | 0.072 | 0.0678 | 0.0691 | 0.0671 | 0.122 | – | 0.0806 | 0.0761 | 0.0593 | 0.0501 | 0.0841 | 0.117 | 0.0841 | 0.0622 | 0.0594 | 0.0954 | 0.072
5 | MGESLFKGPRDYNPISSSICHLTNESDGHTTPLYGIGFGPFIITNKHLFRRNNGTLVVQSLHGVFKVKDTTTLQQHLVDGRDMIIIRMPKDFPPFPQKLKFREPQREERICLVTTNFQTKSMSSMVSDTSCTFPSGDGIFWKHWIQTKDGQCGSPLVSTRDGFIVGIHSASNFTNTNNYFTSVPKNFMELLTNQEAQQWVSGWRLNADSVLWGGHKVFMVKPEEPFQPVKEATQL [S32P] | 0.0629 | – | 0.0606 | 0.0611 | 0.0547 | – | 0.0593 | – | – | 0.0939 | 0.0406 | – | 0.0523 | 0.0561 | 0.057 | 0.0688 | 0.0636 | 0.0599 | 0.0423
6 | MGESLFKGPRDYNPISSSICHLTNESDGHTTSLYGIGFGPFIITNKHLFRRNNGTLVVQSLHGVFKVKDTTTLQQHLVDGRDMIIIRMPKDFPPFPQKLKFREPQREERICLVTTNFQTKSMSSMVSDTSCTFPSGDGIFWKHWIQTKDGQCGSPLVSTRDGFIVGIHSASNFTNTNNYFTSVPKNFMELLTNQEAQQWVSGWRLNADSVLWGGHKVFMVKHEEPFQPVKEATQL [P222H] | 0.0743 | – | 0.0557 | 0.0602 | 0.0611 | 0.076 | – | 0.0666 | 0.0823 | 0.0556 | 0.0623 | – | – | 0.124 | 0.0742 | 0.0563 | 0.0564 | – | 0.0445
7 | MGESLFKGPRDYNPISSSICHLTNESDGHTTSLYGIGFGPFIITNKHLFRRNNGTLVVQSLHGVFKVKDTTTLQQHLVDGRDMIIIRMPKDFPPFPQKLKFREPQREERICLVTTNFQTKSMSSMVSDTSCTFPSGDGIFWKHWIQTKDGQCGSPLVSTRDGFIVGIHSASNFTNTNNYFTSVHKNFMELLTNQEAQQWVSGWRLNADSVLWGGHKVFMVKPEEPFQPVKEATQL [P184H] | 0.0042 | – | 0.0617 | 0.0672 | 0.0556 | 0.0598 | 0.0873 | – | 0.07 | 0.0436 | 0.0697 | 0.0708 | 0.0612 | 0.0933 | – | 0.0614 | – | 0.0545 | –
8 | MGESLFKGPRDYNPISSSICHLTNESDGHTTSLYGIGFGPFIITNKHLFRRNNGTLVVQSLHGVFKVKDTTTLQQHLVDGRDMIIIRMPKDFPPFPQKLKFREPQREERICLVTTNFQTKSMSSMVSDTSCTFPSGDGIFWKHWIQTKDGQCGSPLVSTRDGFIVGIHSASNFTNDNNYFTSVPKNFMELLTNQEAQQWVSGWRLNADSVLWGGHKVFMVKPEEPFQPVKEATQL [T176D] | 0.0691 | – | 0.0672 | 0.0489 | 0.0704 | 0.0655 | – | – | – | 0.0605 | – | – | – | 0.0818 | 0.0618 | 0.0589 | 0.0778 | – | –
9 | MGESLFKGPRDYNPISSSICHLTNESDGHTTSLYGIGFGPFIITNKHLFRRNNGTLVVQSLHGVFKVKDTTTLQQHLVDGRDMIIIRMPKDFPPFPQKLKFREPQREERICLVTTNFQTKSMSSMVSDTSCTFPSTDGIFWKHWIQTKDGQCGSPLVSTRDGFIVGIHSASNFTNTNNYFTSVPKNFMELLTNQEAQQWVSGWRLNADSVLWGGHKVFMVKPEEPFQPVKEATQL [G136T] | 0.08 | 0.0833 | 0.0575 | 0.0678 | 0.0654 | 0.0697 | 0.104 | – | 0.0695 | 0.0621 | 0.0755 | 0.0717 | 0.0705 | 0.1 | 0.0704 | 0.0781 | 0.0552 | 0.0657 | 0.0572
